For this assay, the system named is MX-1 breast xenograft, nude mice, tumor weight T/C. Description: NCI In Vivo Anticancer Drug Screen. Data for tumor model Human Mammary Carcinoma MX-1 Xenograft (intrarenal inoculation) in NU/NU Swiss (nude) mice. Particulars: endpoint: mean tumor weight change, higher = larger tumour. The method, then: The antitumor activity of compounds was measured in mice bearing transplantable tumors. Survival or tumor size were measured and the results are expressed as the measurement made in the treated group (T) divided by the measurement made in the vehicle treated control group (C). The tumor model used in this assay is Human Mammary Carcinoma MX-1 Xenograft (intrarenal inoculation) in NU/NU Swiss (nude) mice
In general terms: Xenograft models place foreign cells or tissue in a host animal.

Setting [1] is: dose: 200.0 mg/kg/injection, schedule: Q01DX010 (sc), vehicle: saline with Tween-80.
[2] abbreviates: dose: 600.0 mg/kg/injection, schedule: Q04DX003 (sc), vehicle: Klucel (hydroxypropylcellulose) (HPC).

Inconclusive results are not listed. For part of its entries the source gives two or more results. This list holds those alone. The source may hold further records. The records of an entry are repeats (runs, samples, wells, individuals or studies). Counts like (3×) give the number of equal values in this list.

Consider `CN1CCN(Cc2nc3cccc4c3c([n+]2[O-])-c2ccccc2-4)CC1`, for which the T/C by setting is: (dose: 50.0 mg/kg/injection, schedule: Q01DX010 (sc), vehicle: saline with Tween-80) 35 % of control and 108 % of control; (dose: 100.0 mg/kg/injection, schedule: Q01DX010 (sc), vehicle: saline with Tween-80) 109 % of control and 155 % of control; under setting [1], 40 % of control and 81 % of control. With `Cc1ncc([N+](=O)[O-])n1CCSC(N)=O`, the T/C is, setting by setting: under setting [1], 16 % of control and 61 % of control; (dose: 800.0 mg/kg/injection, schedule: Q01DX010 (sc), vehicle: saline with Tween-80) 48 % of control and 89 % of control; (dose: 1600.0 mg/kg/injection, schedule: Q01DX010 (sc), vehicle: saline with Tween-80) 38 % of control and 72 % of control. For `CN(CO)c1nc(N(C)CO)nc(N(C)CO)n1`, the T/C (dose: 50.0 mg/kg/injection, schedule: Q01DX010 (sc), vehicle: suspension in saline) is -100 % of control and -35 % of control; the T/C (dose: 75.0 mg/kg/injection, schedule: Q04DX003 (sc), vehicle: saline) was -57 % of control, 4 % of control, 8 % of control; the T/C (dose: 75.0 mg/kg/injection, schedule: Q04DX003 (sc), vehicle: suspension in saline) is given as -98 % of control, 1 % of control, 12 % of control; the T/C (dose: 150.0 mg/kg/injection, schedule: Q04DX003 (sc), vehicle: suspension in saline) is -100 % of control (2×) and -69 % of control. As for `O=C(O)CSc1c(Cl)c(=O)oc2ccc(Cl)cc12`, the T/C under setting [2] is 17 % of control, 29 % of control, 63 % of control. `O=C(O)CC(NC(=O)CP(=O)(O)O)C(=O)O.[NH-]C1CCCCC1[NH-].[Pt+2]` (stereo not drawn): the T/C (dose: 50.0 mg/kg/injection, schedule: Q04DX003 (sc), vehicle: dextrose) is 14 % of control and 52 % of control.

For `Cc1[nH]c(=O)[nH]c(=O)c1N(CCF)CCCl`, the T/C by setting is: (dose: 40.0 mg/kg/injection, schedule: Q04DX003 (sc), vehicle: Klucel (hydroxypropylcellulose) (HPC)) -100 % of control, 1 % of control, 11 % of control; (dose: 80.0 mg/kg/injection, schedule: Q04DX003 (sc), vehicle: Klucel (hydroxypropylcellulose) (HPC)) -100 % of control, -87 % of control, -74 % of control. On to `C(=N/NC1=NCCN1)/c1c2ccccc2c(/C=N\NC2=NCCN2)c2ccccc12`, for which, where the note is “dose: 37.5 mg/kg/injection, schedule: Q04DX003 (sc), vehicle: suspension in saline”, the T/C was 26 % of control and 67 % of control. Take `NC1=NCN(C2OC(CO)C(O)C2O)C(=O)N1` (stereo not drawn): the T/C (dose: 50.0 mg/kg/injection, schedule: Q04DX003 (sc), vehicle: saline) was 38 % of control and 121 % of control.

Take `COC1=C(N)C(=O)c2nc(-c3nc(C(=O)O)c(C)c(-c4ccc(OC)c(OC)c4O)c3N)ccc2C1=O`: the T/C (dose: 0.25 mg/kg/injection, schedule: Q01DX010 (sc), vehicle: saline) is -67 % of control and -24 % of control. For `O=C[C@@H](CO)O[C@H](C=O)n1cnc2c(=O)[nH]cnc21`, the T/C was 27 % of control and 78 % of control (dose: 400.0 mg/kg/injection, schedule: Q04DX003 (sc), vehicle: saline with Tween-80); 25 % of control and 73 % of control (dose: 500.0 mg/kg/injection, schedule: Q04DX003 (sc), vehicle: saline with Tween-80). Consider `NC(=O)SCC(N)C(=O)O` (stereo not drawn), for which the T/C (dose: 900.0 mg/kg/injection, schedule: Q04DX003 (sc), vehicle: suspension in saline) is 15 % of control and 55 % of control. For the molecule `CC1=CC(=Nc2ccc(N(CCCl)CCCl)cc2)C=C(C)C1=O`, the T/C is recorded as -100 % of control, -52 % of control, 15 % of control (dose: 300.0 mg/kg/injection, schedule: Q04DX003 (sc), vehicle: Klucel (hydroxypropylcellulose) (HPC)); -100 % of control, -49 % of control, 3 % of control under setting [2]; -100 % of control, -47 % of control, 1 % of control (dose: 1200.0 mg/kg/injection, schedule: Q04DX003 (sc), vehicle: Klucel (hydroxypropylcellulose) (HPC)). For the molecule `CCOC(OCC)C(=O)OCC(=O)[C@]1(O)Cc2c(O)c3c(c(O)c2[C@@H](OC2CC(N)C(O)C(C)O2)C1)C(=O)c1c(OC)cccc1C3=O` (stereo partly drawn), the T/C reads like this: (dose: 1.0 mg/kg/injection, schedule: Q01DX010 (sc), vehicle: water) 48 % of control, 57 % of control, 118 % of control; (dose: 2.0 mg/kg/injection, schedule: Q01DX010 (sc), vehicle: water) 28 % of control and 60 % of control. Turning to `O=C(CCBr)N1CCN(C(=O)CCBr)CC1`, the T/C (dose: 9.0 mg/kg/injection, schedule: Q01DX010 (sc), vehicle: Klucel (hydroxypropylcellulose) (HPC)) is 56 % of control and 95 % of control. Turning to `Nc1ncn(C2OC(CO)C(O)C2O)c(=O)n1` (stereo not drawn), the T/C (dose: 5.0 mg/kg/injection, schedule: Q04DX003 (sc), vehicle: saline) was 37 % of control and 84 % of control; the T/C (dose: 10.0 mg/kg/injection, schedule: Q04DX003 (sc), vehicle: saline) was 22 % of control, 37 % of control, 53 % of control; the T/C (dose: 400.0 mg/kg/injection, schedule: Q04DX003 (sc), vehicle: suspension in saline) was -96 % of control and 5 % of control; the T/C (dose: 800.0 mg/kg/injection, schedule: Q04DX003 (sc), vehicle: suspension in saline) was -100 % of control and 2 % of control. Turning to `COc1cccc2c1C(=N)c1c(O)c3c(c(O)c1C2=O)C[C@@](O)(C(C)=O)C[C@@H]3OC1CC(N)C(O)C(C)O1` (stereo partly drawn), under “dose: 8.0 mg/kg/injection, schedule: Q01DX010 (sc), vehicle: water”, the T/C was 14 % of control and 48 % of control. For the molecule `CN(C)c1nc(N(C)C)nc(N(C)C)n1`, the T/C is, setting by setting: (dose: 75.0 mg/kg/injection, schedule: Q04DX003 (sc), vehicle: saline with Tween-80) -83 % of control and 46 % of control; (dose: 150.0 mg/kg/injection, schedule: Q04DX003 (sc), vehicle: saline with Tween-80) -89 % of control, -13 % of control, 19 % of control; (dose: 300.0 mg/kg/injection, schedule: Q04DX003 (sc), vehicle: saline with Tween-80) -100 % of control (2×) and -55 % of control. As for `C1OC1CN1CCN(CC2CO2)CC1` (stereo not drawn), the T/C was 35 % of control and 105 % of control (dose: 4.0 mg/kg/injection, schedule: Q01DX010 (sc), vehicle: saline); 15 % of control and 49 % of control (dose: 8.0 mg/kg/injection, schedule: Q01DX010 (sc), vehicle: saline). Regarding `O=P1(N(CCCl)CCCl)NCCCO1` (stereo not drawn), for the setting “dose: 12.5 mg/kg/injection, schedule: Q01DX010 (sc), vehicle: saline”, the T/C was -46 % of control and 8 % of control. With `ClCCCN1CCCCC1CCl` (stereo not drawn), for the setting “dose: 6.25 mg/kg/injection, schedule: Q04DX003 (sc), vehicle: saline”, the T/C was 114 % of control and 183 % of control.

For the molecule `O=C(NO)c1ccc(O)c(O)c1`, the T/C reads like this: (dose: 400.0 mg/kg/injection, schedule: Q04DX003 (sc), vehicle: distilled water + Tween-80) 15 % of control and 96 % of control; (dose: 600.0 mg/kg/injection, schedule: Q04DX003 (sc), vehicle: distilled water + Tween-80) 51 % of control and 94 % of control; (dose: 800.0 mg/kg/injection, schedule: Q04DX003 (sc), vehicle: distilled water + Tween-80) 34 % of control and 85 % of control. For the molecule `COC1OC(CO)C(O)C(NC(=O)N(C)N=O)C1O` (stereo not drawn), the T/C (dose: 450.0 mg/kg/injection, schedule: Q04DX003 (sc), vehicle: saline) is reported as 31 % of control, 76 % of control, 86 % of control.

On to `CN(C)c1ccc2c(NCCCCCCNc3ccnc4cc(N(C)C)ccc34)ccnc2c1`, for which the T/C is recorded as 36 % of control, 81 % of control, 94 % of control (dose: 150.0 mg/kg/injection, schedule: Q04DX003 (sc), vehicle: distilled water + Tween-80 + alcohol) and 7 % of control, 34 % of control, 57 % of control (dose: 300.0 mg/kg/injection, schedule: Q04DX003 (sc), vehicle: distilled water + Tween-80 + alcohol).

As to `OC(CCl)CN1CC[N+]2(CC1)CC[N+]1(CCN(CC(O)CCl)CC1)CC2` (stereo not drawn), the T/C runs as follows: (dose: 32.0 mg/kg/injection, schedule: Q01DX010 (sc), vehicle: water) 96 % of control and 160 % of control; (dose: 128.0 mg/kg/injection, schedule: Q01DX010 (sc), vehicle: water) 55 % of control, 94 % of control, 111 % of control; (dose: 256.0 mg/kg/injection, schedule: Q01DX010 (sc), vehicle: water) 51 % of control, 90 % of control, 154 % of control. Consider `COC12[C@@H]3N[C@@H]3CN1C1=C(C(=O)C(NCCSSCCNC3=C(C)C(=O)C4=C(C3=O)C(COC(N)=O)[C@]3(OC)C5N[C@@H]5CN43)=C(C)C1=O)[C@@H]2COC(N)=O` (stereo partly drawn), for which, where the note is “dose: 6.25 mg/kg/injection, schedule: Q04DX003 (ip), vehicle: DMSO”, the T/C was -100 % of control and 18 % of control.

The record behind these values is PubChem BioAssay AID296 (DTP/NCI, 2004).
